{"source": "the supplement of paper PMC8674133", "binders": {"B1": {"name": "C2206 (protein)", "chain 1": "VQLVESGGGVVQPGRSLRLSCAASGFTFSQYGMHWVRQAPGKGLEWVAVISYDGTDKYYADSVKGRFTISRDNSKNTLSLQMNSLRAEDTAVYYCAKLGGPYCSGGNCYSGYFDYWGQGTLVTVSS", "chain 2": "IRMTQSPSSLSASVGDRVTITCQASQDISNYLNWYQQKPGKAPKLLIYDASNLETGVPSRFSGSGSGTDFTFTISSLQPEDIATFYCQQYDNLPLTFGGRTKVEIK"}, "B2": {"name": "C2473 (protein)", "chain 1": "EVQLVESGGGLMQPGGSLRLSCAASGVIVSRNYMRWVRQAPGKGLEWVSLIYSGGSTFYSDSVKGRFTISRDTSKNTLYLQMNSLRAEDTAVYYCARDLLEAGGMDVWGQGTTVTVSS", "chain 2": "DIQLTQSPSFLSASVGDRVTITCRASQGISSYLAWYQQKQGKAPKILVYAASTLQSGVPSRFSGSGSGTEFTLTISSLQPEDFATYYCQHLNSHPLTFGGGTKVEIK"}, "B3": {"name": "C2458 (protein)", "chain 1": "VQLVESGGGVVQPGRSLRLSCTGSGFTFSTYGMHWVRQAPGKGLEYVAFTSFDGSNKYYAGSVKGRFTISRDNSKNTLYLQMNSLRAEDTAVYFCAKDPMPGAVATTGSFDYWGQGTLVTVSS", "chain 2": "SYELTQPPSVSVAPGQTARITCGANNIGSKSVHWYQQKPGQAPVLVVYDDSDRPSGIPERFSGSNSGNTATLTISRVEAGDEADYYCQVWDSSSDPHWVFGGGTKLTVL"}, "B4": {"name": "C2412 (protein)", "chain 1": "QVQLQESGPGLVKPSQTLSLTCTVSGGSISSGGYYWSWIRQHPGKGLEWIGYIYYTGITYYNPSLKGRITISIDTSKNQFSLNLSSVTAADTAVYSCAGSSGWFGEFFDYWGQGTLVTVSS", "chain 2": "EIVLTQSPATLSLSPGERATLSCRASQSVRNYLAWYQQKPGQAPRLLIYDASNRATGIPARFSGSGSGTDFTLTISSLEPEDFAVYYCQQRFNWPPITFGQGTRLEIK"}, "B5": {"name": "C2413 (protein)", "chain 1": "QVQLQESGPGLLKPSQTLSLTCTVSGGSISRGGFYWSWIRHHPVKGLEWIGYIYYSGSTYYNPSLKSRVTISVDTSKNQFSLKLSSVTAADTAVYYCARDYGGNANYFHYWGQGTLVTVSS", "chain 2": "B1 chain 2 with L10Q, N33S, P39A, F85Y, D91A, R100G"}, "B6": {"name": "C2456 (protein)", "chain 1": "QVQLVQSGAEVKKPGASVKVSCKTSGYNFKSFGISWVRQAPGQGLEWMGWISPYNGNTKYVQKFRGRVTMTTDTSTSTAYMELRSLRSDDTAVYYCARDGELMGWFDPWGQGTLVTVSS", "chain 2": "QSALTQPASETGSPGQSITISCSGTSSDVGSYNLVSWYQQHPGQPPKLMIYKDTERPSGISNRFSGSKSGNTASLTISGLQAEDEADYYCCSYAGSSTWVFGGGTKLTVL"}, "B7": {"name": "C2210 (protein)", "chain 1": "EVQLVESGGGLVQPGRSLRLSCAASGFTFDDYAMHWVRQAPGKGLEWVSGISWNSGTIGYADSVKGRFTISRDNAKNSLYLQMNSLRAEDTAFYYCAKDYCGGDCYSPTRGAGYGMDVWGQGTTVTVSS", "chain 2": "QSALTQPASVSGSPGQSITISCTGTSSDVGGYNYVSWYQQHPGKAPKLMIYDVSNRPSGVSNRFSGSKSGNTASLTISGLQAEDEADYYCSSYTSSSGVVFGGGTKLTVL"}, "B8": {"name": "C2106 (protein)", "chain 1": "QLQLQESGPGLVKPSETLSLTCTVSGGSISSSSYYWGWIRQPPGKGLEWIGSIYYSGSTYYNPSLKSRVTISVDTSKNQFSLKLSSVTAADTAVYYCARLPYYYGSGSYYNRDYYYYGMDVWGQGTTVTVSS", "chain 2": "B4 chain 2 with R30S, N31S, F92S, P96L, I97L, T98A, Q101P, R104K, L105V, E106D"}, "B9": {"name": "C2107 (protein)", "chain 1": "EVQLLESGGGLVQPGGSLRLSCAASGFTFSRYAMSWVRLAPGRGLEWVSGIGGSGESTYYTDSVKGRFIISRDNSKDTLYLQMHSLRAEDTAVYYCAKGKHWNDDYFEYWGQGTLVTVSS", "chain 2": "DIQMTQSPSPLSASVGDRVTITCRASQSITIWLAWYQQKPGKAPKLLIYDASTLESGVPSRFSGSGSGTEFTLTISSLQVDDFATYYCQQYNDFPWTFGQGTKVEIK"}, "B10": {"name": "C2109 (protein)", "chain 1": "EVQLVESGGGLVQPGRSLRLSCAASGFTFDDYAMHWVRQAPGKGLEWVSGISWNSGSIGYADSVKGRFTISRDNAKNSLYLQMNSLRAEDTALYYCAKDRTDRLLTFDYWGQGTLVTVSS", "chain 2": "DIQMTQSPSTLSASVGDRVTITCRASQSFSSWLAWYQQKPGKAPKLLIFDASSLESGVPSRFSGSGSGTEFTLTISSLQPDDFATYYCQQYNSYPLTFGGGTKVEIK"}, "B11": {"name": "C2110 (protein)", "chain 1": "QLQLQESGPGLVKPSETLSLTCTVSGGSISSSSYYWGWIRQPPGKGLEWIGSIYYIGNTYYNPSLKSRVTISVDTSKNQFSLKLSSVTAADTAVYYCARHETDYGGVAGHFQHWGQGTLVTVSS", "chain 2": "QSALTQPASVSGSPGQSITISCTGTSSDVGSYNLVSWYQQHPGKAPKLMIYEGSKRPSGVSNRFSGSKSGNTASLTISGLQAEDEADYYCCSYAGSYVVFGGGTKLTVL"}, "B12": {"name": "C2111 (protein)", "chain 1": "VQLVESGGGVVQPGRSLRLSCAASGFTFSSYAMHWVRQAPGKGLEWVAVVSYDGSNKYYADSVKGRFTISRDNSKNTLYLQMNSLRAEDTAVYYCARDMGSAMVDYFDYWGQGTLVTVSS", "chain 2": "DIQLTQSPSSLSASVGDRVTITCRASQSISSYLSWFQQKPGKAPKLLIYAASSLQSGVPSRFSGSGSGTDFTLTISSLQPEDFATYYCQQSYSTLSYTFGQGTKLEIK"}, "B13": {"name": "C2113 (protein)", "chain 1": "VQLVESGGGLIQPGGSLRLSCAASGFTVSSNYMSWVRQAPGKGLEWVSVIYSGGSTYYADSVKGRFTISRDNSKNTLYLQMNSLRAEDTAVYYCARDFGEFYFDYWGQGTLVTVSS", "chain 2": "EIVLTQSPGTLSLSPGERATLSCRASQTVSSNYLAWYKQKPGQAPRLLIYGAASRATGIPDRFSGSGSGTDFTLTISRLEPEDFAVYYCQQYGSSPRTFGQGTKVEIK"}, "B14": {"name": "C2131 (protein)", "chain 1": "B9 chain 1", "chain 2": "B4 chain 2 with R30S, N31S, F92S, P96G, I97F, Q101P, R104K, L105V, E106D"}, "B15": {"name": "C2132 (protein)", "chain 1": "QLQLQESGPGLVKPSETLSLTCIVSGGSINSTTYYWDWIRQSPGKGLEWIGSIFYTGITYYSPSLKTRVTISVDTSKNQFSLRLNSMTAADTAVYYCARRLRQLWFGPWFDPWGQGTLVTVSS", "chain 2": "QSALTQPASVSGSPGQSITISCTGTSSDVGGYNYVSWYQQHPGKAPKLMIYEVSNRPSGVSNRFSGSKSGNTASLTISGLQAEDEADYYCSSYTSSSTPVVFGGGTKLTVL"}, "B16": {"name": "C2136 (protein)", "chain 1": "EVQLVESGGGLVQPGRSLRLSCGASGFTFEDYGMHWVRQAPGKGLEWVSGISWNGGIIGSADSVKGRFTISRDNAKNSLYLQMISLRPEDTAVYYCAKDISVLDYGVYGAIDVWGQGTMVTVSS", "chain 2": "EIVLTQSPGTLSLSPGERATLSCRASQSVSSSYLAWYQQKPGQAPRLLIYGATSRATGIPDRFSGSGSGTDFTLTISRLEPEDFAVYYCQQYSGPYTFGQGTKLEIK"}}, "note": "Substitutions are numbered along the chain they refer to. Recombinant human monoclonal antibodies (heavy:light variable regions). ELISA EC50 on the named antigen, from 10 µg/ml down; IC50 / IC90 against spike pseudovirus on 293T-ACE2 cells, 48 h; lower = stronger. Calls: IC50 above 1,000 ng/ml = non-neutralizing; EC50 above 2,000 ng/ml = non-binder. The source prints 1000 for neutralization that was not reached; it is given as >1000 ng/ml. A few antibodies were first reported in earlier work of the same group."}
{"molecular_target": "SARS-CoV-2 Wuhan-Hu-1 spike pseudovirus", "assay": "pseudovirus neutralization IC50; higher = weaker neutralization", "method": "(§1)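 Single-round luciferase reporter pseudovirus mixed with antibody dilutions and put on 293T-ACE2 cells for 48 h; signal relative to no-antibody wells, four-parameter fit.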", "units": {"pseudovirus neutralization IC50": "µg/mL"}}
{"binder": "B1", "pseudovirus neutralization IC50": "> 1"}
{"binder": "B2", "pseudovirus neutralization IC50": 0.00207}
{"binder": "B3", "pseudovirus neutralization IC50": 0.296}
{"binder": "B4", "pseudovirus neutralization IC50": "> 1"}
{"binder": "B5", "pseudovirus neutralization IC50": "> 1"}
{"binder": "B6", "pseudovirus neutralization IC50": 0.00187}
{"binder": "B7", "pseudovirus neutralization IC50": 0.244}
{"binder": "B8", "pseudovirus neutralization IC50": "> 1"}
{"binder": "B9", "pseudovirus neutralization IC50": "> 1"}
{"binder": "B10", "pseudovirus neutralization IC50": 0.849}
{"binder": "B11", "pseudovirus neutralization IC50": 0.118}
{"binder": "B12", "pseudovirus neutralization IC50": "> 1"}
{"binder": "B13", "pseudovirus neutralization IC50": 0.0651}
{"binder": "B14", "pseudovirus neutralization IC50": "> 1"}
{"binder": "B15", "pseudovirus neutralization IC50": "> 1"}
{"binder": "B16", "pseudovirus neutralization IC50": "> 1"}
{"molecular_target": "SARS-CoV-2 Wuhan-Hu-1 spike pseudovirus", "assay": "pseudovirus neutralization IC90; higher = weaker neutralization", "method": "as §1", "units": {"pseudovirus neutralization IC90": "µg/mL"}}
{"binder": "B1", "pseudovirus neutralization IC90": "> 1"}
{"binder": "B2", "pseudovirus neutralization IC90": 0.143}
{"binder": "B3", "pseudovirus neutralization IC90": "> 1"}
{"binder": "B4", "pseudovirus neutralization IC90": "> 1"}
{"binder": "B5", "pseudovirus neutralization IC90": "> 1"}
{"binder": "B6", "pseudovirus neutralization IC90": 0.00978}
{"binder": "B7", "pseudovirus neutralization IC90": "> 1"}
{"binder": "B8", "pseudovirus neutralization IC90": "> 1"}
{"binder": "B9", "pseudovirus neutralization IC90": "> 1"}
{"binder": "B10", "pseudovirus neutralization IC90": "> 1"}
{"binder": "B11", "pseudovirus neutralization IC90": "> 1"}
{"binder": "B12", "pseudovirus neutralization IC90": "> 1"}
{"binder": "B13", "pseudovirus neutralization IC90": 0.471}
{"binder": "B14", "pseudovirus neutralization IC90": "> 1"}
{"binder": "B15", "pseudovirus neutralization IC90": "> 1"}
{"binder": "B16", "pseudovirus neutralization IC90": "> 1"}
{"molecular_target": "SARS-CoV-2 Wuhan-Hu-1 spike receptor-binding domain", "assay": "ELISA binding EC50; higher = weaker binding; ELISA of recombinant human antibody on coated antigen, from 10 µg/ml in fourfold dilutions; four-parameter fit.", "units": {"ELISA binding EC50": "µg/mL"}}
{"binder": "B1", "ELISA binding EC50": 0.00225}
{"binder": "B2", "ELISA binding EC50": 0.00148}
{"binder": "B3", "ELISA binding EC50": 0.00229}
{"binder": "B4", "ELISA binding EC50": 0.00323}
{"binder": "B5", "ELISA binding EC50": 0.00648}
{"binder": "B6", "ELISA binding EC50": 0.00134}
{"binder": "B7", "ELISA binding EC50": 0.00144}
{"binder": "B8", "ELISA binding EC50": 0.0683}
{"binder": "B9", "ELISA binding EC50": 0.00361}
{"binder": "B10", "ELISA binding EC50": 0.00184}
{"binder": "B11", "ELISA binding EC50": 0.00256}
{"binder": "B12", "ELISA binding EC50": 0.00173}
{"binder": "B13", "ELISA binding EC50": 0.00185}
{"binder": "B14", "ELISA binding EC50": "> 10"}
{"binder": "B15", "ELISA binding EC50": "> 10"}
{"binder": "B16", "ELISA binding EC50": 0.00121}
